Measurements published in PubChem BioAssay AID1347073 (National Center for Advancing Translational Sciences (NCATS), 2019).
Out of some 45,000 compounds screened, about 200 (0.44%) were called active. About 7% were inconclusive and are not listed. Calls come from the whole dose curve; as a rule, active = well fitted activation curve with a large enough effect; inconclusive = small, poorly fitted or top-dose-only effect; inactive = no such curve, though single readings can be large or run the other way. Some of the results follow.

experiment: qHTS of TDP-43 Inhibitors: NCGC Sytravon Library Screen; conditions: yeast TDP-43 toxicity rescue, BacTiter-Glo growth, 24 h; series mostly up to 46.1 µM; growth rescue (activation): at the top concentration; note: 0% is about no effect; nearly all actives have a fitted effect of over 55% in size
Summary of the method: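 TDP-43-expressing yeast, pregrown in raffinose, seeded at OD600 0.02 in galactose medium with compound for 24 hr at 30 deg C. Growth read by BacTiter-Glo luminescence, so rescue of toxicity appears as activation.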

Row | Structure (SMILES) | growth rescue (activation)
1 | COc1ccc(C(=O)NC(=S)Nc2ccc(S(=O)(=O)Nc3cc(C)on3)cc2)cc1OC | inactive: -37.3%
2 | COc1ccc(N(C)S(=O)(=O)c2ccc(Cl)c(C(=O)NNC(=O)c3ccccc3O)c2)cc1 | inactive: 0.0549%
3 | CC(C)NC(=O)c1cc(C2CCCCN2C(=O)c2ccc(C#N)cc2)on1 (stereo not drawn) | inactive: 9.61%
4 | COc1ccc(C(=O)C(C)[n+]2ccc(-c3nnc4n3CCCCC4)cc2)cc1 (stereo not drawn) | inactive: -0.261%
5 | O=c1nc2ccc(Cl)cn2c2ccc(S(=O)(=O)N3CCOCC3)cc12 | inactive: -5.74%
6 | COc1ccccc1NC(=O)Cc1nc(CCl)cs1 | inactive: -9.18%
7 | Cc1cccc(OCC(=O)NCCCNC(=O)c2ccc(C)nc2)c1 | inactive: 10.2%
8 | N#Cc1cc2ccccc2nc1SCC(=O)NC1CC1 | inactive: 9.43%
9 | CCNC(=O)C1(C)CCN(C(=O)c2cccc(OC(F)(F)F)c2)C1 (stereo not drawn) | inactive: 4.66%
10 | COc1ccc(S(=O)(=O)Nc2cccc(C)c2C)c2cccnc12 | inactive: -16.8%
11 | O=C(COc1cccc2ccccc12)N/N=C/c1ccccc1OCc1ccc(C(=O)O)cc1 | inactive: -1.02%
12 | CC(=O)Nc1ccc(N(C(=O)CNC(=O)c2cccs2)C(C(=O)NC(C)(C)C)c2ccccc2)cc1 (stereo not drawn) | inactive: 29.9%
13 | CCc1ccccc1NC(=O)CN1CCN(CC(=O)Nc2ccc(-c3ccccc3)cc2)CC1 | inactive: 18.5%
14 | CC1=C(C(=O)OCC2CCCO2)C(c2ccc(F)cc2)NC(=O)N1 (stereo not drawn) | inactive: 6.83%
15 | CC1(C(=O)NS(=O)(=O)C2CC2)CCN(C(=O)c2cc3ccccc3s2)C1 (stereo not drawn) | inactive: 8.68%
16 | Cc1ccc(S(=O)(=O)NC(=O)C2(C)CCN2C(=O)C2(c3ccc(Cl)cc3)CC2)nc1 (stereo not drawn) | inactive: -3.88%
17 | CCn1c(SCC(=O)Nc2ccc(C)cc2)nnc1-c1ccccn1 | inactive: 16.1%
18 | O=C(c1ccc2c3c(cccc13)CC2)C1CCCN(Cc2cccnc2)C1 (stereo not drawn) | inactive: -0.432%
19 | CCOC(=O)NNC1CC(=O)N(c2ccccc2)C1=O (stereo not drawn) | inactive: -24.7%
20 | S=c1nc(-c2ccc(Br)cc2)oc2c1CCCC2 | inactive: 25.2%
21 | COc1ccccc1NC(=O)c1ccccc1NC(=O)c1cccs1 | inactive: 10.5%
22 | CCCCCCCCCCCCCCCC[n+]1ccc(/C=N/O)cc1 | inactive: -89.2%
23 | O=C(N/N=C/c1ccc([N+](=O)[O-])o1)c1ccccc1-n1cccc1 | inactive: 29.4%

Row | Structure (SMILES) | growth rescue (activation)
24 | COc1cccc(/C=N/NC(=O)c2[nH]nc3c2CCc2ccccc2-3)c1O | inactive: 21.2%
25 | N#CCCN(C(=O)CN1c2cccc3cccc(c23)S1(=O)=O)c1ccccc1 | inactive: 7.15%
26 | O=C(Nc1nc2ccccc2s1)c1ccccc1 | inactive: 22.1%
27 | O=C(O)CNC(=O)/C=C/c1c(Cl)cccc1Cl | inactive: 7.71%
28 | COc1ccc(OC)c(S(=O)(=O)N2CCCC(C(=O)NCCN3CCOCC3)C2)c1 (stereo not drawn) | inactive: 4.16%
29 | Clc1cccc(/C(Cc2nc3ccccc3[nH]2)=N\Nc2ccccc2)c1 | inactive: -76.5%
30 | C=CCn1c(SCc2nc3c(c(=O)[nH]c(=O)n3CCCC)n2CCC)nnc1-c1ccccc1 | inactive: 0.623%
31 | O=C(N/N=C\c1c[nH]c2ccccc12)c1ccc(O)cc1 | inactive: 10.3%
32 | CCOc1ccc(S(=O)(=O)N2CCCCC2)cc1NC(=O)CN1C(=O)NC(C)(C2CC2)C1=O (stereo not drawn) | inactive: 23.1%
33 | CN1CCN(S(=O)(=O)c2cccc(C(=O)Nc3cccc(S(N)(=O)=O)c3)c2)CC1 | inactive: 11.7%
34 | O=Cc1c(N2CCCCC2)nc2ccccn2c1=O | inactive: 8.66%
35 | COc1ccc(C)cc1NC(=O)C1CC(=O)N(CCc2ccc(F)cc2)C1 (stereo not drawn) | inactive: 2.49%
36 | O=C(O)COc1ccccc1C=NNC(=O)c1ccccc1NS(=O)(=O)c1cccs1 | inactive: -10.8%
37 | CCOC(=O)/C(O)=C(\C#N)c1nc2ccccc2[nH]1 | inactive: 4.47%
38 | COc1cc(/C=C/C(=O)O)cc(S(=O)(=O)Nc2ccccc2C(=O)NCCc2ccccc2)c1OC | inactive: 2.65%
39 | COC(=O)COc1c(Cl)cc(C(c2c(C)[nH][nH]c2=O)c2c(C)[nH][nH]c2=O)cc1OC | inactive: -24.7%
40 | CN(CCOc1ccccc1)S(=O)(=O)c1ccc2oc3ccccc3c2c1 | inactive: 25.6%
41 | COc1ccc(OCc2nnc(NC(=O)Nc3ccccc3F)s2)cc1 | inactive: -5.32%
42 | COc1ccccc1N=Nc1[nH]c2ccc(C)cc2c1O | inactive: 11.3%
43 | O=C(Nc1ccc2cn[nH]c2c1)c1c(Cl)cccc1Cl | inactive: -18.7%
44 | CC(C)NC(=S)N(CCc1ccncc1)C(C)C | inactive: -4%
45 | COC(=O)c1cc(C#N)c(N2CC(C)OC(C)C2)nc1C (stereo not drawn) | inactive: 0.531%
46 | N#Cc1ccccc1S(=O)(=O)N1CCN(C(=O)CN2CCCSc3ccccc32)CC1 | inactive: 23.7%

Row | Structure (SMILES) | growth rescue (activation)
47 | Cc1cc(C)c(NC(=O)COC(=O)/C=C/c2cccs2)c(C)c1 | inactive: -8.51%
48 | COC(=O)c1ccc(NC(=O)CCOc2ccccc2)cc1 | inactive: 26.9%
49 | O=C(NCc1ccc(F)cc1)c1cc(C2CCCCN2C(=O)OCCF)on1 (stereo not drawn) | inactive: 6.86%
50 | CC(=O)N1CCC(=NNc2nc3ccccc3[nH]2)CC1 | inactive: -6.18%
51 | Cc1ccc(S(=O)(=O)NCC(=O)NCC(=O)N2CCN(c3ncccn3)CC2)cc1C | inactive: 7.5%
52 | CC(C)CN(CC(C)C)CC(O)COc1ccccc1Br (stereo not drawn) | inactive: 13.8%
53 | CCCOc1ccc(-c2c(=O)n(O)c3ccccc3[n+]2[O-])cc1 | inactive: -12.5%
54 | CCOc1ccc(NC(=O)C/C(C)=N/NC(=O)Cc2cccs2)cc1 | inactive: 5.16%
55 | COc1cc(S(=O)(=O)N2CCCN(C)CC2)ccc1NC(C)=O | inactive: 2.88%
56 | CCOC(=O)N1CCN(Cc2cc(Cl)c3cccnc3c2O)CC1 | inactive: 15.9%
57 | Cc1cccc(NC(=O)Cn2c(=O)oc3cc(S(=O)(=O)N4CCCCCC4)ccc32)c1 | inactive: -3.24%
58 | CCCCc1ccc(NC(=O)c2ccc(NS(C)(=O)=O)cc2)cc1 | inactive: 7.68%
59 | O=C(c1cccc2ccccc12)C1CCCN(C(=O)CCc2cnccn2)C1 (stereo not drawn) | inactive: 18%
60 | Cc1cc(C)cc(N2CCCn3c2nc2c3c(=O)[nH]c(=O)n2C)c1 | inactive: -5.25%
61 | COc1ccc(S(=O)(=O)NC(C)C(=O)NCc2ccco2)cc1OC (stereo not drawn) | inactive: -14.8%
62 | Cc1ccccc1NC(=O)c1ccc(S(=O)(=O)N2CCCC2)cc1 | inactive: 12.7%
63 | COc1ccc(NC(C)=O)cc1NC(=O)CSc1nnc(C2CCCCC2)n1N | inactive: 9.78%
64 | O=C1CC(N2CCN(S(=O)(=O)c3ccccc3F)CC2)C(=O)N1c1ccccc1Cl (stereo not drawn) | inactive: 35.3%
65 | Cc1cnc(C(=O)OCC(=O)NC2CCCCCC2)cn1 | inactive: -0.107%
66 | COc1ccc(-c2nn(-c3ccccc3)cc2/C=C\C(=O)Nc2ccc(C(=O)O)cc2)cc1 | inactive: -4.16%
67 | CCOc1ccccc1N1CCN(C(=O)C(Sc2ccccc2)c2ccccc2)CC1 (stereo not drawn) | inactive: 5.09%
68 | CC1(C)CC(=O)C2=C(C1)NC(=O)NC2c1ccc([N+](=O)[O-])cc1 (stereo not drawn) | inactive: 9.67%
